The campaign covered roughly 350,000 compounds. About 31,000 (8.9%) were called active. This list was built around the results that the source calls inconclusive (neither active nor inactive); the mix of calls is not that of the screen. Calls come from the whole dose curve; as a rule, active = well fitted inhibition curve with a large enough effect; inconclusive = small, poorly fitted or top-dose-only effect; inactive = no such curve, though single readings can be large or run the other way. Where the call is inconclusive, the potency comes from a doubtful curve fit.
molecular target: Histone-lysine N-methyltransferase EHMT2 (Homo sapiens) (UniProt Q96KQ7); experiment: qHTS Assay for Inhibitors of Histone Lysine Methyltransferase G9a; settings: G9a H3K9 monomethylation, AlphaScreen, 2 h; activity, negative = inhibition: at 59 µM (top of the series) unless noted; note: nearly all actives have a fitted effect of over 75% in size
Procedure, shortened: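 Step 1: enzyme (final 20 nM) with compound, 15 min RT. Step 2: substrate peptide 500 nM and SAM 20 uM, 2 h RT. Step 3: anti-H3K9me1 antibody and AlphaScreen beads, 10 min, then plate read.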
% is set by controls: 0 for no effect and ±100 for the full control effect; potency is the fitted concentration of half-maximal effect; tags give direction and shape of the fitted curve.

UniProt Q96KQ7, sequence (Q96KQ7 whole entry, looked up): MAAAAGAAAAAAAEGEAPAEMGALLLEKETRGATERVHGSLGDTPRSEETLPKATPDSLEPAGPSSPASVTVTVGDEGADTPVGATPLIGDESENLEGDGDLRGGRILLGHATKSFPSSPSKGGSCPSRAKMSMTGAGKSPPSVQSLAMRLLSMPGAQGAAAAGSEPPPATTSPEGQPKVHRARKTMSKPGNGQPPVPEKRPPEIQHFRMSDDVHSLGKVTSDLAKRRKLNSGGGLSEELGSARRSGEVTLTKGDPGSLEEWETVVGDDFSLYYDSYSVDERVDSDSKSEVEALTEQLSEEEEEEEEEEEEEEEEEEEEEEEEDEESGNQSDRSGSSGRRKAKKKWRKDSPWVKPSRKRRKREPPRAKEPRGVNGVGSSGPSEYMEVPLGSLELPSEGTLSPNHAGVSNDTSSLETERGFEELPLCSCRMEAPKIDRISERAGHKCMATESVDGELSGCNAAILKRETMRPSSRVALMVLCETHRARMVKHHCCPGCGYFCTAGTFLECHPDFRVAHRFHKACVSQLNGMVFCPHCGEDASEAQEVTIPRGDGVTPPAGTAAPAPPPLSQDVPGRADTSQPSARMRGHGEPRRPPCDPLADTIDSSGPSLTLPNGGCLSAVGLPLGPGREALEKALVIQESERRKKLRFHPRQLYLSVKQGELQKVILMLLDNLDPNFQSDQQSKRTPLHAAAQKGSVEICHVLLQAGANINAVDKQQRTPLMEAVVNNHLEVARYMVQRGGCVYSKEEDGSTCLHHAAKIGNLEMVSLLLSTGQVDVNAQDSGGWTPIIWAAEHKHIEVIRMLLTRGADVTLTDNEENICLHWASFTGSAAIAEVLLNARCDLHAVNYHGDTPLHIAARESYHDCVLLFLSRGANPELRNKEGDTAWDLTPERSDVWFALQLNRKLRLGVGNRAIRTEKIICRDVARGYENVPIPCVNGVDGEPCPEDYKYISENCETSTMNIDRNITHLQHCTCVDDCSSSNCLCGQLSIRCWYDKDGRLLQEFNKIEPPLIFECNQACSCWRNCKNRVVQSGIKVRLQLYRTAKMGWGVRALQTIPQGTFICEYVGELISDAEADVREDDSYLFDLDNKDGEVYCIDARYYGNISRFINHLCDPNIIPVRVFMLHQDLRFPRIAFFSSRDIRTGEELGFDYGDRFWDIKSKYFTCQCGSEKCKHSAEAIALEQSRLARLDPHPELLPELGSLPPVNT

Q: Which Potency does the source give for `O=C1NC(c2ccccc2)(C(F)(F)F)SC2=CCCCCN12` (centres undefined) here?
A: inconclusive: 39.8 µM [inhibitor, single point]

Q: For `COc1ccc(S(=O)(=O)N2CCN(C(=O)c3ccc4ccccc4n3)CC2)cc1`, which Potency is on record?
A: inconclusive: 8.91 µM [inhibitor, single point]

Q: For `CCOc1cccc2sc(Cl)nc12`, which activity, negative = inhibition is on record?
A: inconclusive: -98.9% [inhibitor]

Q: For `O=C(c1cc2ncc(CCCl)cn2n1)N1CCCCCC1`, which Potency is on record?
A: inconclusive: 89.1 µM [inhibitor, single point]

Q: How did the Potency turn out when `Cc1cc(OCC(=O)OCC(=O)N(C)c2c(N)n(Cc3ccccc3)c(=O)[nH]c2=O)ccc1Cl` was run?
A: active: 6.31 µM

Q: With `O=C(O)/C=C/C(=O)Nc1cccc(C(F)(F)F)c1` as the compound, how does the Potency read?
A: inconclusive: 35.5 µM [inhibitor, single point]

Q: With `Cc1sc2nc(C3CC3)nc(SCC(=O)NCc3ccco3)c2c1C` as the compound, how does the Potency read?
A: active: 50.1 µM

Q: Which Potency does the source give for `Cc1oc(-c2cccc(Cl)c2)nc1CN1CCC(C(=O)N2CCN(c3ccccc3F)CC2)CC1` here?
A: inconclusive: 31.6 µM [inhibitor, partial curve]

Q: `COc1ccc(CCC(=O)Nc2ccc(Br)cn2)cc1` was tested. Which Potency did it give?
A: inconclusive: 89.1 µM [inhibitor, single point]

Q: How did the Potency turn out when `O=[N+]([O-])c1ccc2nc(-c3ccncc3)[nH]c2c1` was run?
A: inconclusive: 89.1 µM [inhibitor, partial curve, poor fit]

Q: How did the Potency turn out when `COc1ccc(-c2cc(C(=O)Nc3c(F)cc(F)cc3Br)no2)cc1` was run?
A: inactive

Q: `O=C1[C@H]2[C@@H](c3ccc(F)cc3)N3C(=O)N(c4ccc(C(F)(F)F)cc4)C(=O)[C@@]3(Cc3ccccc3)[C@H]2C(=O)N1C1CCCCC1` was tested. Which activity, negative = inhibition did it give?
A: inactive: 1.06% [at 12.7 µM]

Q: For `CCOC(=O)N1CCC(N2C(=O)c3ccccc3C2Nc2ccccc2C)CC1` (centres undefined), which Potency is on record?
A: inconclusive: 25.1 µM [inhibitor, single point]

Q: How did the Potency turn out when `CC(C)(C)OC(=O)N1CCC(c2c(C(=O)N3CCN(c4ccccc4F)CC3)cnn2-c2ccccc2Cl)CC1` was run?
A: inconclusive: 28.2 µM [inhibitor, partial curve, poor fit]

Q: How did the Potency turn out when `COC(=O)C1Cc2ccccc2CN1C(=O)CCl` (centres undefined) was run?
A: inconclusive: 56.2 µM [inhibitor, partial curve]

Q: For `Cc1ccc(NC(=O)c2cnc(SCC(=O)N3CCCc4ccccc43)n(C)c2=O)cc1`, which Potency is on record?
A: inactive

Q: `COc1ccc(C(CNC(=O)C2CC(=O)N(Cc3ccc(C)cc3)C2)N(C)C)cc1` (centres undefined) was tested. Which Potency did it give?
A: inconclusive: 39.8 µM [inhibitor, single point]

Q: With `COCCNC(=S)N(CCc1c(C)[nH]c2ccc(F)cc12)Cc1cccs1` as the compound, how does the Potency read?
A: inconclusive: 2.51 µM [inhibitor, full curve, poor fit]

Q: How did the Potency turn out when `CSC(N)=NCCC[C@H](N)C(=O)O` was run?
A: inactive

Q: For `CC1=C(C(=O)Nc2ccc(Cl)cc2)C(c2cccs2)n2nc(SCc3cccc(C)c3)nc2N1` (centres undefined), which Potency is on record?
A: inactive

Q: For `Cc1ccc2c(c1)N(CCC(=O)NCC1CCCO1)C(=O)CO2` (centres undefined), which activity, negative = inhibition is on record?
A: inconclusive: -59.9% [inhibitor] [at 0.0925 µM]

Q: Which Potency does the source give for `Cc1ccc(SCc2cc(=O)n3[nH]cnc3n2)cc1` here?
A: inconclusive: 31.6 µM [inhibitor, single point]

Q: With `CCCn1c(SCC(=O)c2c[nH]c3ccccc23)nnc1-c1ccncc1` as the compound, how does the Potency read?
A: inconclusive: 35.5 µM [inhibitor, single point]

Q: For `Nc1nc(C23CC4CCC(CC(C4)C2)C3)cs1`, which Potency is on record?
A: inconclusive: 70.8 µM [inhibitor, single point]

Q: Which Potency does the source give for `CCCCn1nc(C(=O)N(CC)CC(=O)Nc2c(F)cccc2F)c2ccccc2c1=O` here?
A: inactive

Q: With `COc1cc(Cl)c(NC(=O)CCc2nc3cccnc3n2-c2ccccc2)c(OC)c1` as the compound, how does the Potency read?
A: inconclusive: 35.5 µM [inhibitor, partial curve, poor fit]

Q: Which Potency does the source give for `O=C(Nc1ccc(N2CCN(c3ccc(O)cc3)CC2)cc1)Oc1ccccc1` here?
A: active: 0.891 µM

Q: With `O=C(CSc1cccc2cccc(Cl)c12)NC1=NCCS1` as the compound, how does the Potency read?
A: inconclusive: 70.8 µM [inhibitor, partial curve, poor fit]

Q: How did the Potency turn out when `CC1(C)COC2(OC1)C(=O)Nc1ccccc12` was run?
A: inconclusive: 70.8 µM [inhibitor, partial curve, poor fit]

Q: Which activity, negative = inhibition does the source give for `CC(C)NC(=O)N1CCCC2(CCN(C(=O)c3cccc(F)c3)CC2)C1` here?
A: inactive: 2.11% [at 12.7 µM]

Q: With `Cc1c(C(=O)Nc2ccccc2F)sc2ncn(CC(=O)N3CCOCC3)c(=O)c12` as the compound, how does the Potency read?
A: inactive

Q: Which activity, negative = inhibition does the source give for `Cc1onc(-c2ccccc2Cl)c1C(=O)N1CCN(c2nc3ccccc3s2)CC1` here?
A: inactive: 2.76% [at 2.33 µM]

Q: With `Cc1ccc2cc(CCNC(=O)c3ccc(Br)o3)c(=O)[nH]c2c1` as the compound, how does the Potency read?
A: inconclusive: 89.1 µM [inhibitor, single point]

Q: For `Cc1oc2c(C)c3oc(=O)c(CC(=O)N[C@@H](CC(C)C)C(=O)N[C@@H](Cc4ccccc4)C(=O)O)c(C)c3cc2c1C`, which Potency is on record?
A: inconclusive: 89.1 µM [inhibitor, single point]

Q: For `COc1ccc(OCc2cc(C(=O)NC3Cc4ccccc4C3)no2)c(Cl)c1`, which Potency is on record?
A: inactive

Q: `Cc1ccc(N2CCN(C(=O)c3ccccc3)CC2)c(C)c1` was tested. Which Potency did it give?
A: inactive

Q: With `Cn1c(N)c(C(=O)CSc2ccccn2)c(=O)n(C)c1=O` as the compound, how does the Potency read?
A: inactive

Q: How did the Potency turn out when `CCOc1ccc(NC(=O)CCNS(=O)(=O)c2ccc3c(c2)CCCC(=O)N3)cc1` was run?
A: inactive

Q: With `CCCCCOc1ccc(Cn2c(=O)oc3ccc(C)cc32)cc1OC` as the compound, how does the Potency read?
A: inactive

Q: `Cc1cc(N2CCN(C(=O)c3ccco3)CC2)nc(-c2ccccc2)n1` was tested. Which Potency did it give?
A: inconclusive: 89.1 µM [inhibitor, single point]

Q: With `CCN1CCN(Cc2ccc(NC(=O)c3ccc(C)c(NC(=O)c4cccc5[nH]ccc45)c3)cc2C(F)(F)F)CC1` as the compound, how does the activity, negative = inhibition read?
A: inconclusive: -66.2% [inhibitor]

Q: With `COc1ccc(CNC(=O)CCc2c(C)c3cc4c(C)c(C)oc4cc3oc2=O)cc1` as the compound, how does the Potency read?
A: inactive

Q: How did the Potency turn out when `CC(=O)NC1Sc2ccccc2N=C1c1ccccc1` (centres undefined) was run?
A: inconclusive: 2.24 µM [inhibitor, partial curve, poor fit]

Q: With `COc1ccc(C(=O)c2ccc(OC)c(N)c2)cc1N` as the compound, how does the Potency read?
A: inconclusive: 1.41 µM [inhibitor, full curve, poor fit]

Source: PubChem BioAssay AID504332 (National Center for Advancing Translational Sciences (NCATS), 2011)
